B1: PhoQ; a variant is named by its letters at X, in order, P23837 (parent)
chain: MKKLLRLFFPLSLRVRFLLATAAVVLVLSLAYGMVALIGYSVSFDKTTFRLLRGESNLFYTLAKWENNKLHVELPENIDKQSPTMTLIYDENGQLLWAQRDVPWLMKMIQPDWLKSNGFHEIEADVNDTSLLLSGDHSIQQQLQEVREDDDDAEMTHSVAVNVYPATSRMPKLTIVVVDTIPVELKSSYMVWSWFIYVLSANLLLVIPLLWVAAWWSLRPIEALAKEVRELEEHNRELLNPATTRELTSLVRNLNRLLKSERERYDKYRTTLTDLTHSLKTPLXXLQXXLRSLRSEKMSVSDAEPVMLEQISRISQQIGYYLHRASMRGGTLLSRELHPVAPLLDNLTSALNKVYQRKGVNISLDISPEISFVGEQNDFVEVMGNVLDNACKYCLEFVEISARQTDEHLYIVVEDDGPGIPLSKREVIFDRGQRVDTLRPGQGVGLAVAREITEQYEGKIVAGESMLGGARMEVIFGRQHSAPKDE

Some of the results follow.

In the experiment the parent is B1. Briefly: enrichment ratio after two sorts for PhoP signalling (ratio (wild type AVST 3.29)); higher = more functional. The conditions noted are these: with PhoP (E. coli).
As for LNCM, the enrichment ratio was at most 0.25.

Turning to MEEN, the enrichment ratio is at most 0.25.

Regarding RNQN, the enrichment ratio is at most 0.25. HGRC: the enrichment ratio is at most 0.25. HCLP: the enrichment ratio is at most 0.25. For HFIQ the value was at most 0.25.

On to CLSP, for which the enrichment ratio is at most 0.25. LGRE: the enrichment ratio is at most 0.25. As to TTDI, the enrichment ratio is at most 0.25. For the variant SNIQ, the enrichment ratio is at most 0.25. Regarding KSYP, the enrichment ratio is at most 0.25. As for ALMG, the enrichment ratio was 6.08.

Turning to RDKF, the enrichment ratio is at most 0.25. As to ERVN, the enrichment ratio was at most 0.25.

Turning to QDFD, the enrichment ratio was at most 0.25. For the variant PTIM, the enrichment ratio was at most 0.25. SRLA: the enrichment ratio is at most 0.25. In the case of LWVE, the enrichment ratio was at most 0.25.

For the variant EHAD, the enrichment ratio was at most 0.25. For VKWH, the enrichment ratio was at most 0.25. Consider RSPT, for which the enrichment ratio was at most 0.25. For NEGV the value was at most 0.25; for YMHD, at most 0.25; for WSCW, at most 0.25. For ASKV the value was at most 0.25; for SITD, at most 0.25. Regarding HQAT, the enrichment ratio was at most 0.25. For the variant TAAL, the enrichment ratio was found to be 11.4. Then WDQL, with at most 0.25; and NMTF, with at most 0.25. For MVGA the value was at most 0.25; for KDAM, at most 0.25. For the variant RSMR, the enrichment ratio was at most 0.25.

Regarding PAAS, the enrichment ratio was at most 0.25. For the variant VYQT, the enrichment ratio was at most 0.25. With LGYD, the enrichment ratio is at most 0.25. Turning to QPWG, the enrichment ratio is at most 0.25. For QQNL the value was 14.9; for IQKV, at most 0.25. MNDM: the enrichment ratio is at most 0.25.

With PKSR, the enrichment ratio is at most 0.25. As for YIMQ, the enrichment ratio is at most 0.25.

For MQMT, the enrichment ratio is at most 0.25. Regarding FPWY, the enrichment ratio was at most 0.25. For WRNY, the enrichment ratio is at most 0.25.

In the case of WTYF, the enrichment ratio was at most 0.25. Then NKIW, with at most 0.25; and LVQL, with at most 0.25. On to EMFD, for which the enrichment ratio is at most 0.25. Regarding VWEG, the enrichment ratio is at most 0.25.

In the case of MWHT, the enrichment ratio is at most 0.25.

Take PTTQ: the enrichment ratio is at most 0.25. As for SMEC, the enrichment ratio is at most 0.25. Consider FAAQ, for which the enrichment ratio is at most 0.25. Regarding QECD, the enrichment ratio was at most 0.25.

Consider SGIF, for which the enrichment ratio amounted to 2.26. For HSYN, the enrichment ratio was at most 0.25. On to QQEG, for which the enrichment ratio is at most 0.25.

Take IFMV: the enrichment ratio is at most 0.25. In the case of IVKP, the enrichment ratio is at most 0.25. For LAGE the value was at most 0.25; for RRMP, at most 0.25; for NPRQ, at most 0.25.

LWGE: the enrichment ratio was at most 0.25. Regarding QFFQ, the enrichment ratio is at most 0.25. For VFEW the value was at most 0.25. For ALWC the value was at most 0.25; for DHMH, at most 0.25. For MRTF the value was at most 0.25. Consider VCDI, for which the enrichment ratio was at most 0.25.

For the variant PIWH, the enrichment ratio is at most 0.25. With TEQC, the enrichment ratio came out at 9.21. As for FWVL, the enrichment ratio is at most 0.25.

For HNTI, the enrichment ratio was at most 0.25. For the variant DWCS, the enrichment ratio is at most 0.25. Regarding KCHV, the enrichment ratio is at most 0.25. Then GGHP, with at most 0.25; and KIDL, with at most 0.25. With HQAI, the enrichment ratio was at most 0.25. Turning to LRYC, the enrichment ratio was at most 0.25.

As for SPCY, the enrichment ratio was at most 0.25. For VNVT the value was at most 0.25; for YYQA, at most 0.25; for SKMD, 0.57. For GMLQ the value was at most 0.25; for LKVP, at most 0.25; for SDDT, at most 0.25. Regarding TISQ, the enrichment ratio was 10.4. In the case of LPLT, the enrichment ratio was at most 0.25.

For the variant LAGY, the enrichment ratio was at most 0.25. Then YCYK, with at most 0.25; and SKTT, with 3.09; and TCGA, with 6.88. With INLV, the enrichment ratio stood at 4.76. On to FNNC, for which the enrichment ratio is at most 0.25. As for KYGW, the enrichment ratio is at most 0.25. Turning to LRRE, the enrichment ratio was at most 0.25.

Take NIFV: the enrichment ratio is at most 0.25. On to HHKW, for which the enrichment ratio is at most 0.25. For KTIN the value was at most 0.25.

With ESWE, the enrichment ratio is at most 0.25. Turning to KTQM, the enrichment ratio was at most 0.25. Turning to HTEF, the enrichment ratio was at most 0.25. Regarding TQNA, the enrichment ratio is at most 0.25. As for RPKY, the enrichment ratio is at most 0.25. Regarding VQDY, the enrichment ratio is at most 0.25. In the case of QLRT, the enrichment ratio is at most 0.25. Regarding KAGH, the enrichment ratio is at most 0.25. On to FDYA, for which the enrichment ratio was at most 0.25. As to LCDD, the enrichment ratio was at most 0.25. As for WASS, the enrichment ratio is at most 0.25. As to LDFG, the enrichment ratio is at most 0.25. Consider QASD, for which the enrichment ratio is at most 0.25. For KQHV the value was at most 0.25; for EMFN, at most 0.25. Consider FPDV, for which the enrichment ratio is at most 0.25.

Consider ITFT, for which the enrichment ratio is at most 0.25.

For PHCL, the enrichment ratio is at most 0.25. For WERT the value was at most 0.25. For the variant LDDN, the enrichment ratio is at most 0.25. YFCQ: the enrichment ratio is at most 0.25.

For DRPH, the enrichment ratio was at most 0.25. As to YYQC, the enrichment ratio is at most 0.25. Turning to SPSY, the enrichment ratio is at most 0.25. On to HVWR, for which the enrichment ratio is at most 0.25. Take NSIY: the enrichment ratio was at most 0.25. For PDAA the value was at most 0.25. Take GWQC: the enrichment ratio is at most 0.25. With LDAD, the enrichment ratio is at most 0.25. For SCWV the value was at most 0.25; for NMRY, at most 0.25. With YKIK, the enrichment ratio was at most 0.25.

TKQT: the enrichment ratio turned out to be 11.7.

As to NREN, the enrichment ratio was at most 0.25.

Consider FHLD, for which the enrichment ratio was at most 0.25. In the case of WARY, the enrichment ratio was at most 0.25. For the variant SRMR, the enrichment ratio is at most 0.25. As for PACV, the enrichment ratio is at most 0.25. For MGKA the value was at most 0.25.

For the variant EQKG, the enrichment ratio was at most 0.25.

For the variant ARRR, the enrichment ratio is at most 0.25. For ANPW the value was at most 0.25. As to ARII, the enrichment ratio is at most 0.25. Then YTKI, with at most 0.25; and EMRV, with at most 0.25; and MEMY, with 4.03. As for WYWL, the enrichment ratio was at most 0.25. DFEI: the enrichment ratio is at most 0.25.

Turning to YAQF, the enrichment ratio is at most 0.25. For IDCF the value was at most 0.25. For LGCI the value was at most 0.25. Turning to MDIF, the enrichment ratio is at most 0.25. For NKYS, the enrichment ratio was at most 0.25.

Source of the values: a collection of fitness landscapes (doi:10.1126/science.1257360).
